Measured values reported in publication PMC12820563, “FoxP3 forms a head-to-head dimer in vivo and stabilizes its multimerization on adjacent microsatellites”.
The list shows a part of the results.

molecular target: T1, MBP-FoxP1dN (Mus musculus, UniProt P58462 326-579); experiment: PD-seq (MBP pull-down with sequencing); 20 mM Tris-HCl pH 7.5, 100 mM NaCl, 1.5 mM MgCl2, 0.4 uM protein, 0.1 uM dsDNA library, 30 min, room temperature, amylose pull-down; high values mean tight binding; settings: protein: recombinant; tags: His6-MBP; chain copies: 2; dsDNA, one strand shown
T1 sequence: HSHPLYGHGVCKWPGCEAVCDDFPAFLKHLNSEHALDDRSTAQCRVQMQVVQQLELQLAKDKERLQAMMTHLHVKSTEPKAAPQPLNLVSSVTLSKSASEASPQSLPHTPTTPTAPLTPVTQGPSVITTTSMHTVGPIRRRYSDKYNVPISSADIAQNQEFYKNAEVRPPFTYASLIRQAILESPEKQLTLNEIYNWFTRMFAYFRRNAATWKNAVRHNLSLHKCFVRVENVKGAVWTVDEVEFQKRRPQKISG
In short: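 E. coli-expressed mouse FoxP3 or FoxP1 fragment, N-terminus removed and tagged with His6-MBP, was used at 0.4 µM against 0.1 µM of a Klenow-filled degenerate double-stranded DNA library. After 30 min at room temperature in Tris pH 7.5 buffer with NaCl and MgCl2, complexes were pulled down on amylose resin and washed three times. Binding is pull-down over input reads-per-million enrichment from pooled replicates of the proteinase K-released, PCR-barcoded, Illumina-sequenced DNA.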

| Sequence | binding signal |
| --- | --- |
| GATGATTGTTCTCCCAGCTGATGAATTGAGCCTGTCGAGTAAACAAATTTTCCTAATCTTTCTGTTCAAGCGCCATCTAC | 0.804 RPM ratio (pull-down/input) |
| GATGATTGTTCTCCCAGCTGATGAATTAATTATATCGAGTAAACAAATTTTCCTAATCTTTCTGTTCAAGCGCCATCTAC | 1.11 RPM ratio (pull-down/input) |
| GATGATTGTTCTCCCAGCTGATGAATTCGTGCGTTCGAGTAAACAAATTTTCCTAATCTTTCTGTTCAAGCGCCATCTAC | 1.01 RPM ratio (pull-down/input) |
| GATGATTGTTCTCCCAGCTGATGAATTATGGAGATCGAGTAAACAAATTTTCCTAATCTTTCTGTTCAAGCGCCATCTAC | 0.886 RPM ratio (pull-down/input) |
| GATGATTGTTCTCCCAGCTGATGAATTCTTGAAGTCGAGTAAACAAATTTTCCTAATCTTTCTGTTCAAGCGCCATCTAC | 0.868 RPM ratio (pull-down/input) |
| GATGATTGTTCTCCCAGCTGATGAATTTCCGCAGTCGAGTAAACAAATTTTCCTAATCTTTCTGTTCAAGCGCCATCTAC | 0.873 RPM ratio (pull-down/input) |
| GATGATTGTTCTCCCAGCTGATGAATTCGGGGGCTCGAGTAAACAAATTTTCCTAATCTTTCTGTTCAAGCGCCATCTAC | 0.717 RPM ratio (pull-down/input) |
| GATGATTGTTCTCCCAGCTGATGAATTTTTTCTGTCGAGTAAACAAATTTTCCTAATCTTTCTGTTCAAGCGCCATCTAC | 0.986 RPM ratio (pull-down/input) |
| GATGATTGTTCTCCCAGCTGATGAATTAGAGGTCTCGAGTAAACAAATTTTCCTAATCTTTCTGTTCAAGCGCCATCTAC | 0.802 RPM ratio (pull-down/input) |
| GATGATTGTTCTCCCAGCTGATGAATTGCTTTACTCGAGTAAACAAATTTTCCTAATCTTTCTGTTCAAGCGCCATCTAC | 1.01 RPM ratio (pull-down/input) |
| GATGATTGTTCTCCCAGCTGATGAATTCCCCGGATCGAGTAAACAAATTTTCCTAATCTTTCTGTTCAAGCGCCATCTAC | 0.788 RPM ratio (pull-down/input) |
| GATGATTGTTCTCCCAGCTGATGAATTTGTACCATCGAGTAAACAAATTTTCCTAATCTTTCTGTTCAAGCGCCATCTAC | 1.17 RPM ratio (pull-down/input) |
| GATGATTGTTCTCCCAGCTGATGAATTGAGTAAGTCGAGTAAACAAATTTTCCTAATCTTTCTGTTCAAGCGCCATCTAC | 0.921 RPM ratio (pull-down/input) |
| GATGATTGTTCTCCCAGCTGATGAATTTCTGGCCTCGAGTAAACAAATTTTCCTAATCTTTCTGTTCAAGCGCCATCTAC | 0.797 RPM ratio (pull-down/input) |
| GATGATTGTTCTCCCAGCTGATGAATTCACAGTCTCGAGTAAACAAATTTTCCTAATCTTTCTGTTCAAGCGCCATCTAC | 0.839 RPM ratio (pull-down/input) |
| GATGATTGTTCTCCCAGCTGATGAATTCCCGATCTCGAGTAAACAAATTTTCCTAATCTTTCTGTTCAAGCGCCATCTAC | 0.712 RPM ratio (pull-down/input) |
| GATGATTGTTCTCCCAGCTGATGAATTGTATGGATCGAGTAAACAAATTTTCCTAATCTTTCTGTTCAAGCGCCATCTAC | 1.04 RPM ratio (pull-down/input) |
| GATGATTGTTCTCCCAGCTGATGAATTAGCATCTTCGAGTAAACAAATTTTCCTAATCTTTCTGTTCAAGCGCCATCTAC | 1.39 RPM ratio (pull-down/input) |
| GATGATTGTTCTCCCAGCTGATGAATTTAACTGCTCGAGTAAACAAATTTTCCTAATCTTTCTGTTCAAGCGCCATCTAC | 0.898 RPM ratio (pull-down/input) |
| GATGATTGTTCTCCCAGCTGATGAATTTTTATTCTCGAGTAAACAAATTTTCCTAATCTTTCTGTTCAAGCGCCATCTAC | 1.06 RPM ratio (pull-down/input) |

| Sequence | binding signal |
| --- | --- |
| GATGATTGTTCTCCCAGCTGATGAATTGGAGGTGTCGAGTAAACAAATTTTCCTAATCTTTCTGTTCAAGCGCCATCTAC | 0.821 RPM ratio (pull-down/input) |
| GATGATTGTTCTCCCAGCTGATGAATTGCTTGTTTCGAGTAAACAAATTTTCCTAATCTTTCTGTTCAAGCGCCATCTAC | 1.43 RPM ratio (pull-down/input) |
| GATGATTGTTCTCCCAGCTGATGAATTAGCGAATTCGAGTAAACAAATTTTCCTAATCTTTCTGTTCAAGCGCCATCTAC | 0.968 RPM ratio (pull-down/input) |
| GATGATTGTTCTCCCAGCTGATGAATTCAGTTCATCGAGTAAACAAATTTTCCTAATCTTTCTGTTCAAGCGCCATCTAC | 0.935 RPM ratio (pull-down/input) |
| GATGATTGTTCTCCCAGCTGATGAATTGACTTGATCGAGTAAACAAATTTTCCTAATCTTTCTGTTCAAGCGCCATCTAC | 0.925 RPM ratio (pull-down/input) |
| GATGATTGTTCTCCCAGCTGATGAATTCCTGGGATCGAGTAAACAAATTTTCCTAATCTTTCTGTTCAAGCGCCATCTAC | 0.853 RPM ratio (pull-down/input) |
| GATGATTGTTCTCCCAGCTGATGAATTTACATAGTCGAGTAAACAAATTTTCCTAATCTTTCTGTTCAAGCGCCATCTAC | 1.42 RPM ratio (pull-down/input) |
| GATGATTGTTCTCCCAGCTGATGAATTTGCCCACTCGAGTAAACAAATTTTCCTAATCTTTCTGTTCAAGCGCCATCTAC | 0.934 RPM ratio (pull-down/input) |
| GATGATTGTTCTCCCAGCTGATGAATTCAGCAACTCGAGTAAACAAATTTTCCTAATCTTTCTGTTCAAGCGCCATCTAC | 0.923 RPM ratio (pull-down/input) |
| GATGATTGTTCTCCCAGCTGATGAATTAGTGGCGTCGAGTAAACAAATTTTCCTAATCTTTCTGTTCAAGCGCCATCTAC | 0.994 RPM ratio (pull-down/input) |
| GATGATTGTTCTCCCAGCTGATGAATTACCGACGTCGAGTAAACAAATTTTCCTAATCTTTCTGTTCAAGCGCCATCTAC | 0.917 RPM ratio (pull-down/input) |
| GATGATTGTTCTCCCAGCTGATGAATTGGGGTATTCGAGTAAACAAATTTTCCTAATCTTTCTGTTCAAGCGCCATCTAC | 0.899 RPM ratio (pull-down/input) |
| GATGATTGTTCTCCCAGCTGATGAATTACCTACCTCGAGTAAACAAATTTTCCTAATCTTTCTGTTCAAGCGCCATCTAC | 0.913 RPM ratio (pull-down/input) |
| GATGATTGTTCTCCCAGCTGATGAATTTGGCTCATCGAGTAAACAAATTTTCCTAATCTTTCTGTTCAAGCGCCATCTAC | 0.876 RPM ratio (pull-down/input) |
| GATGATTGTTCTCCCAGCTGATGAATTTGCCGCATCGAGTAAACAAATTTTCCTAATCTTTCTGTTCAAGCGCCATCTAC | 1.12 RPM ratio (pull-down/input) |
| GATGATTGTTCTCCCAGCTGATGAATTTCATGAGTCGAGTAAACAAATTTTCCTAATCTTTCTGTTCAAGCGCCATCTAC | 0.825 RPM ratio (pull-down/input) |
| GATGATTGTTCTCCCAGCTGATGAATTTAACGGGTCGAGTAAACAAATTTTCCTAATCTTTCTGTTCAAGCGCCATCTAC | 0.906 RPM ratio (pull-down/input) |
| GATGATTGTTCTCCCAGCTGATGAATTATGTTTTTCGAGTAAACAAATTTTCCTAATCTTTCTGTTCAAGCGCCATCTAC | 2.19 RPM ratio (pull-down/input) |
| GATGATTGTTCTCCCAGCTGATGAATTGGTGGATTCGAGTAAACAAATTTTCCTAATCTTTCTGTTCAAGCGCCATCTAC | 0.975 RPM ratio (pull-down/input) |
| GATGATTGTTCTCCCAGCTGATGAATTGCTGTAGTCGAGTAAACAAATTTTCCTAATCTTTCTGTTCAAGCGCCATCTAC | 1.2 RPM ratio (pull-down/input) |
